Assay results: PubChem BioAssay AID1030 (National Center for Advancing Translational Sciences (NCATS), 2008)
Values joined by “and” are separate entries in the source; they are usually repeats but may differ in a detail not shown here. Identical values can stand only once. The whole screen tested about 220,000 compounds, of which about 16,000 (7.3%) were called active. Inconclusive results, whose numbers are uncertain, are shown with a selection of clear calls. The call rests on the fitted dose curve; in most records, active means well fitted inhibition curve with a large enough effect (not every such curve was filed as active); inconclusive means small, poorly fitted or top-dose-only effect, or another doubt; inactive means no such curve, though single readings can be large or run the other way. No potency is given beside an inconclusive call; the fits are too rough. More than one record can exist for a structure, and the calls need not agree.

target: Aldehyde dehydrogenase 1A1 (Homo sapiens) (UniProt P00352); experiment: qHTS Assay for Inhibitors of Aldehyde Dehydrogenase 1 (ALDH1A1); settings: Purified ALDH1A1, NADH fluorescence, propionaldehyde substrate; series mostly up to 75.3 µM; activity, negative = inhibition: at the top concentration;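 on activity, negative = inhibition: plate controls were no enzyme wells and a reference inhibitor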
Potency means the concentration at half of the fitted maximal effect; tags describe the fitted curve by direction and shape.

UniProt P00352, sequence (P00352 whole entry, looked up): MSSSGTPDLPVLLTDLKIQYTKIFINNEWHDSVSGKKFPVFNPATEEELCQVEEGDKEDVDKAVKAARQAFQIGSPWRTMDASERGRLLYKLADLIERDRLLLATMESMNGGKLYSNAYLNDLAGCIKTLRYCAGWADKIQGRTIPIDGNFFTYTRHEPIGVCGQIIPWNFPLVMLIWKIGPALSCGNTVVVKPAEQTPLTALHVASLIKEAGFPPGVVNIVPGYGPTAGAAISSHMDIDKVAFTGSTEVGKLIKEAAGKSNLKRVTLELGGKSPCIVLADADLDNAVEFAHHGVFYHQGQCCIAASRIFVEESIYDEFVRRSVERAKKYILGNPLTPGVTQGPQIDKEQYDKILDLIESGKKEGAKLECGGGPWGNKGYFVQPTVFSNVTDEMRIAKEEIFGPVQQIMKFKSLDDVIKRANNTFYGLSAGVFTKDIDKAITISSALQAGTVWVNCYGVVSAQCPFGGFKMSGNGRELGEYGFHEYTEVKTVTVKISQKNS

SMILES | Potency | activity, negative = inhibition
CCC(C(=O)N1CCN(S(C)(=O)=O)CC1)c1ccccc1 (stereo not given) | inconclusive [inhibitor, single point] | 
O=C(COc1ccc(Cl)cc1Cl)NCc1ccco1 |  | inactive: 0.223%
Cc1cccc(/C=C/c2nc3ccccc3c(=O)[nH]2)c1 | inconclusive [inhibitor, single point] | 
COC(=O)COc1ccc(Cl)cc1C1Nc2ccccc2C(=O)N1c1ccc(OC)cc1 (stereo not given) | inconclusive [inhibitor, single point] | 
COc1ccc(NS(=O)(=O)c2ccc(OC)c(NC(=O)CCC3CCCC3)c2)cc1 | inconclusive [inhibitor, partial curve] | 
CCn1cc(CN2CCc3c([nH]c4ccccc34)C2c2cccc(OC)c2OC)c(C)n1 (stereo not given) |  | inactive: 0.0172%
COc1ccc2c(c1)C(=O)[C@H](OC(=O)Nc1cc(OC)c(OC)c(OC)c1)[C@@H](c1ccc(OC)c(Br)c1)O2 |  | inactive: 4.26%
[O-]/C(=C(\C(=S)Nc1cccc2ccccc12)[n+]1ccccc1)c1ccc(OC(F)F)cc1 | active: 18.9 µM | 
COC(=O)C1=CNC=C(C(=O)OC)C1c1ccc(Cl)cc1 | inconclusive [inhibitor, partial curve] | 
O=C(CN1C(=O)CS/C1=C\c1nc(-c2ccc(Cl)cc2)cs1)Nc1cccnc1Cl | inconclusive [inhibitor, single point] | 
COc1ccccc1C1C=C(c2ccc(Cl)cc2)Nc2nc(N3C(=O)CCC3=O)nn21 (stereo not given) | inconclusive [inhibitor, partial curve] | 
Cc1cccc2nc(-c3cccc(NC(=O)Cc4ccccc4)c3)cn12 | inconclusive [inhibitor, single point] | 
CCOC(=O)N1CCN(CC(=O)Nc2cc3c(cc2C(C)=O)OCO3)CC1 | inconclusive [inhibitor, single point] | 
COc1cc(-c2nnc(Sc3ccc(C(F)(F)F)cc3[N+](=O)[O-])o2)cc(OC)c1OC | inconclusive [inhibitor, single point] | 
COc1ccc(NC(=O)CCC2CCCCC2)cc1S(=O)(=O)N1CCCCC1 | inconclusive [inhibitor, single point] | 
O=[N+]([O-])c1ccc([N+](=O)[O-])c(Nc2ccc(N3CCOCC3)cc2)c1 |  | inactive: -8.74%
CSc1ccccc1N=Cc1nc(-c2ccccc2)oc1O | active: 5.01 µM | 
Cc1c(C(=O)N2CCC(C)CC2)sc2ncnc(N(C)c3ccccc3)c12 | inconclusive [inhibitor, partial curve] | 
COC(=O)c1ccc(NN=Nc2ccc(C)cc2)cc1 | inconclusive [inhibitor, single point] | 
CS(=O)(=O)N1CCC(Oc2ccccc2C(=O)N2CCNC(=O)C2)CC1 |  | inactive: 2.19%
Cc1ncc([N+](=O)[O-])n1CC(C)O (stereo not given) | inactive | 
CCn1c(C)csc1=NC(=O)c1ccccc1O | inconclusive [inhibitor, partial curve] | 
Cn1cc(-c2nnnn2-c2ccccc2)c(=O)c2ccccc21 | active: 7.08 µM | 

SMILES | Potency | activity, negative = inhibition
O=c1[nH]c2cc(Cl)cc(Cl)c2[nH]c1=O | inconclusive [inhibitor, partial curve] | 
COC(=O)C1C(=O)C2=C(CC1C)NC(C)=C(C(=O)OCCOc1ccccc1)C2c1ccc(C)o1 (stereo not given) | inconclusive [inhibitor, single point] | 
COc1ccccc1N/N=C/c1ccc2c(c1)OCO2 | inconclusive [inhibitor, single point] | 
CCC(=O)c1c(NC(CC)CO)cc(C)oc1=O (stereo not given) |  | inactive: 4.78%
O=C(Nc1cc(C(F)(F)F)ccc1Cl)C(Sc1cccc[n+]1[O-])c1ccccc1 (stereo not given) | inconclusive [inhibitor, single point] | 
Fc1ccccc1NC(=S)N(CCN1CCCCCC1)Cc1cccs1 | inconclusive [inhibitor, single point] | 
O=C(CSc1ccc(-c2ccccc2)nn1)NCC1CCCO1 (stereo not given) | inconclusive [inhibitor, single point] | 
Cc1ccc(C)c(NC(=S)/C(=C(\[O-])c2ccc(OC(F)F)cc2)[n+]2ccccc2)c1 | inconclusive [inhibitor, partial curve] | 
Cc1nc(N2CCOCC2)nc(OCCN2CCOCC2)c1[N+](=O)[O-] |  | inactive: -1.79%
Oc1ccc(N=C/C=C/c2ccc(Br)cc2)cc1-c1nc2ccccc2s1 | inconclusive [inhibitor, single point] | 
COc1ccc(OC)c(-c2csc(NC(=O)C3=NNC(=O)CC3)n2)c1 | inconclusive [inhibitor, single point] | 
CC1=C(/C=C/C(C)=C/C=C/C(C)=C/CO)C(C)(C)CCC1 | inactive and active: 5.97 µM and active: 25.1 µM | 
Cc1cccnc1CCNC(=O)CCc1nnc(-c2ccccc2)o1 | inconclusive [inhibitor, partial curve, poor fit] | 
COc1cc(/C=N/NC(=O)c2cc(-c3ccco3)nc3ccccc23)cc(OC)c1O | active: 22.4 µM | 
CN(C)/C=C/C(=O)c1cc(N2CCOCC2)ccc1[N+](=O)[O-] | inconclusive [inhibitor, single point] | 
Cn1/c(=N/N=C/c2ccc([N+](=O)[O-])cc2)sc2ccccc21 |  | inactive: 5.62%
Cc1cccc(OCC(=O)Nc2ccc(N3CCN(C(=O)c4ccco4)CC3)cc2)c1 |  | inactive: -2.37%
COc1cc(C=O)ccc1OCC(=O)N1CCOCC1 | inconclusive [inhibitor, partial curve] | 
O=C(CCCCCNC(=S)Nc1ccccc1)C[N+](=O)[O-] | active: 3.55 µM | 
CCCCOc1cccc(OCC(=O)Nc2nc3ccccc3[nH]2)c1 |  | inactive: 4.88%
CN1CCN(C(=O)CN(CCc2ccccc2)S(C)(=O)=O)CC1 |  | inactive: -1.03%
COc1ccc(S(=O)(=O)NCCc2ccccc2)cc1 | inconclusive [inhibitor, partial curve] | 
